Laboratory results from the supplement of paper PMC12297408.
Where a name gives a salt, the structure may show the parent alone. The whole screen tested about 1,300 compounds, of which about 40 (3%) showed activity. The list shows a part of the results.

Tested on: Plasmodium falciparum NF54/iGP1_RE9H ulg8 stage V gametocytes
Experiment: gametocyte viability (luciferase signal relative to DMSO control) (% of DMSO control); higher = less gametocytocidal activity, active = 50 or less
Settings: exposure time: 72 h
Summary of the method: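 Stage V gametocytes of the NF54/iGP1_RE9Hulg8 line (day 12; ~2.5% gametocytemia, 3% hematocrit), in medium containing 0.5% Albumax II, were dispensed into 96-well plates with compounds spotted in nanolitre volumes from 10 mM DMSO stocks, for final concentrations of 10 µM or 1 µM in a single well each. After 72 h at 37 °C, 90 µl from each well was combined with 10 µl D-luciferin (30 mg/ml), and luminescence was measured on an IVIS Lumina II. Viability was expressed against the mean of the DMSO vehicle wells on the same plate.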

SMILES | gametocyte viability (concentration: 1 µM) | gametocyte viability (concentration: 10 µM)
Cc1c(OCC(F)(F)F)ccnc1C[S+]([O-])c1nc2ccccc2[nH]1 (stereo unspecified) [Lansoprazole] | inactive: 86.3 | inactive: 80.6
Cn1c(=O)c2c(ncn2C)n(C)c1=O [Caffeine] | inactive: 97 | inactive: 100
CC(C)(C)NCC(O)c1ccc(O)c(CO)c1 (stereo unspecified) [Salbutamol] | inactive: 84.6 | inactive: 83.9
COc1cc(N)c(Cl)cc1C(=O)NC1CCN(Cc2ccccc2)CC1 [Clebopride maleate] | inactive: 88.6 | inactive: 86.1
Nc1nc(N)nc(-c2cc(Cl)ccc2Cl)n1 [Irsogladine maleate] | inactive: 85.3 | inactive: 79.8
CCN1CCCC1CNC(=O)c1cc(S(=O)(=O)CC)c(N)cc1OC (stereo unspecified) [Amisulpride] | inactive: 87.8 | inactive: 80.8
O=C(NCC1CCCCN1)c1cc(OCC(F)(F)F)ccc1OCC(F)(F)F (stereo unspecified) [Flecainide acetate] | inactive: 102 | inactive: 98.6
CC1CCc2cc(F)cc3c(=O)c(C(=O)O)cn1c23 (stereo unspecified) [Flumequine] | inactive: 86.4 | inactive: 85
CCCCOc1ccc(OCCCN2CCOCC2)cc1 [Pramoxine hydrochloride] | inactive: 87.8 | inactive: 88.4
CC(C)[C@H]1CC[C@H](C(=O)N[C@H](Cc2ccccc2)C(=O)O)CC1 [Nateglinide] | inactive: 93.6 | inactive: 95.8
COc1ccccc1OCCNCC(O)COc1cccc2[nH]c3ccccc3c12 (stereo unspecified) [Carvedilol] | inactive: 88.7 | inactive: 81.8
CC(C)c1nc(CN(C)C(=O)N[C@H](C(=O)N[C@@H](Cc2ccccc2)C[C@H](O)[C@H](Cc2ccccc2)NC(=O)OCc2cncs2)C(C)C)cs1 [Ritonavir] | inactive: 66.4 | active: 36.5
CCn1cc(C(=O)O)c(=O)c2cc(F)c(N3CCNCC3)cc21 [Norfloxacin] | inactive: 83.5 | inactive: 88.4
CCOC(=O)C1=C(C)NC(C)=C(C(=O)OC)C1c1cccc([N+](=O)[O-])c1 (stereo unspecified) [Nitrendipine] | inactive: 90.3 | inactive: 93.3
CC(CN1c2ccccc2Sc2ccccc21)N(C)C (stereo unspecified) [Promethazine hydrochloride] | inactive: 85.7 | inactive: 87.3
NS(=O)(=O)c1cc2c(cc1C(F)(F)F)NC(Cc1ccccc1)NS2(=O)=O (stereo unspecified) [Bendroflumethiazide] | inactive: 91.6 | inactive: 92.3
O=C(c1ccc(OCCN2CCCCC2)cc1)c1c(-c2ccc(O)cc2)sc2cc(O)ccc12 [Raloxifene hydrochloride] | inactive: 79.9 | inactive: 59.4
C=C(NC(=O)C(=C)NC(=O)c1csc(C2=N[C@@H]3c4csc(n4)[C@H]4NC(=O)c5csc(n5)[C@H]([C@](C)(O)[C@@H](C)O)NC(=O)[C@H]5CSC(=N5)/C(=C/C)NC(=O)[C@H]([C@@H](C)O)NC(=O)c5csc(n5)[C@]3(CC2)NC(=O)[C@H](C)NC(=O)C(=C)NC(=O)[C@H](C)NC(=O)[C@H]([C@@H](C)CC)N[C@@H]2C=Cc3c([C@H](C)O)cc(nc3[C@H]2O)C(=O)O[C@@H]4C)n1)C(N)=O [Thiostrepton] | inactive: 101 | inactive: 104
CC(=C(CCO)SSCC1CCCO1)N(C=O)Cc1cnc(C)nc1N (stereo in doubt) [Fursultiamine Hydrochloride] | inactive: 83.6 | inactive: 84.6
CCC(C)(CN(C)C)OC(=O)c1ccccc1 (stereo unspecified) [Amyleine hydrochloride] | inactive: 103 | inactive: 95.8

SMILES | gametocyte viability (concentration: 1 µM) | gametocyte viability (concentration: 10 µM)
NC(=O)c1cccnc1 [Nicotinamide] | inactive: 85.7 | inactive: 82.8
Cn1c(=O)c2c(ncn2CC(O)CO)n(C)c1=O (stereo unspecified) [Diprophylline] | inactive: 76.5 | inactive: 87.9
CNC1(C)C2CCC(C2)C1(C)C (stereo unspecified) [Mecamylamine hydrochloride] | inactive: 93.8 | inactive: 94.3
CC1=C(C(=O)O)N2C(=O)[C@@H](NC(=O)[C@H](N)c3ccc(O)cc3)[C@H]2SC1 [Cefadroxil] | inactive: 86.7 | inactive: 86.8
C=CCN1CCCC1CNC(=O)c1cc2nn[nH]c2cc1OC (stereo unspecified) [Alizapride HCl] | inactive: 82.2 | inactive: 84.7
CC(C)(Oc1ccc(C2CC2(Cl)Cl)cc1)C(=O)O (stereo unspecified) [Ciprofibrate] | inactive: 94.2 | inactive: 94.6
Nc1ccc(S(N)(=O)=O)cc1 [Sulfanilamide] | inactive: 83.6 | inactive: 85.5
CNCC[C@@H](Oc1cccc2ccccc12)c1cccs1 [(R)-Duloxetine hydrochloride] | inactive: 79.7 | inactive: 63.4
CC(CCc1ccc(O)cc1)NCCc1ccc(O)c(O)c1 (stereo unspecified) [Dobutamine hydrochloride] | inactive: 78.1 | inactive: 81.7
CCC(C)(C)c1ccc(CC(C)CN2C[C@@H](C)O[C@@H](C)C2)cc1 (stereo partly specified) [Amorolfine hydrochloride] | inactive: 79.2 | inactive: 71.3
CC[C@]12CCCN3CCc4c(n(c5ccccc45)[C@@](O)(C(=O)OC)C1)[C@@H]32 [Vincamine] | inactive: 89.5 | inactive: 89
Cc1ccc(O)c([C@H](CCN(C(C)C)C(C)C)c2ccccc2)c1 [Tolterodine tartrate] | inactive: 98.5 | inactive: 88
CCCCOc1ccc(CC(=O)NO)cc1 [Bufexamac] | inactive: 87.9 | inactive: 94.5
CC(=O)OC(C)C[N+](C)(C)C (stereo unspecified) [Methacholine chloride] | inactive: 88.9 | inactive: 82.6
C=CCc1ccccc1OCC(O)CNC(C)C (stereo unspecified) [Alprenolol hydrochloride] | inactive: 88.9 | inactive: 88.7
NC[C@H]1CC[C@H](C(=O)O)CC1 [Tranexamic acid] | inactive: 82.3 | inactive: 79.1
O=C(O)c1cc(=O)c2c(OCC(O)COc3cccc4oc(C(=O)O)cc(=O)c34)cccc2o1 [Cromolyn disodium salt] | inactive: 96.7 | inactive: 93.2
Cc1c(O)cccc1C(=O)N[C@@H](CSc1ccccc1)[C@H](O)CN1C[C@H]2CCCC[C@H]2C[C@H]1C(=O)NC(C)(C)C [Nelfinavir mesylate] | inactive: 90.7 | inactive: 70.6
CCSc1ccc2c(c1)N(CCCN1CCN(C)CC1)c1ccccc1S2 [Thiethylperazine dimalate] | inactive: 83.3 | active: 32.4
CN(C)CCC(c1ccccc1)c1ccccn1 (stereo unspecified) [Pheniramine maleate] | inactive: 89.9 | inactive: 82.4

SMILES | gametocyte viability (concentration: 1 µM) | gametocyte viability (concentration: 10 µM)
O=P(O)(O)C(O)(Cc1cccnc1)P(=O)(O)O [Risedronic acid monohydrate] | inactive: 81.3 | inactive: 82.9
CCN(CC)C(=O)N1CCN(C)CC1 [Diethylcarbamazine citrate] | inactive: 82 | inactive: 87.5
CCN(CCCc1ccccc1)CCCc1ccccc1 [Alverine citrate salt] | inactive: 82.3 | inactive: 82
Clc1ccccc1C(c1ccccc1)(c1ccccc1)n1ccnc1 [Clotrimazole] | inactive: 86.5 | inactive: 72.4
Clc1ccc(COC(Cn2ccnc2)c2ccc(Cl)cc2Cl)cc1 (stereo unspecified) [Econazole nitrate] | inactive: 92.6 | inactive: 83.2
C=CC[N@@+]12CC[C@@]34c5ccccc5N5/C=C6/[C@H]7C[C@H]8[C@@]9(CC[N@@+]8(CC=C)C/C7=C/CO)c7ccccc7N(/C=C(/[C@@H](C[C@@H]31)/C(=C\CO)C2)[C@H]54)[C@@H]69 [Alcuronium chloride] | inactive: 82.4 | inactive: 80.3
CCCC(C(=O)OCCN(CC)CC)(c1ccccc1)c1ccccc1 [Proadifen hydrochloride] | inactive: 84.8 | inactive: 93.4
C=C1C(=O)O[C@H]2[C@H]1CC/C(C)=C/CC[C@@]1(C)O[C@@H]21 [Parthenolide] | inactive: 90.4 | inactive: 87.8
CCCCOc1ccc(C(=O)CCN2CCCCC2)cc1 [Dyclonine hydrochloride] | inactive: 86.2 | inactive: 90.6
CC(C)(C)CC(C)(C)c1ccc(OCCOCC[N+](C)(C)Cc2ccccc2)cc1 [Benzethonium chloride] | inactive: 82.1 | active: 9.32
Cn1nnc2c(C(N)=O)ncn2c1=O [Temozolomide] | inactive: 86.9 | inactive: 88.1
CC(C)(C)NC(=O)[C@H]1CC[C@H]2[C@@H]3CC[C@H]4NC(=O)C=C[C@]4(C)[C@H]3CC[C@]12C [Finasteride] | inactive: 81.6 | inactive: 69.2
Nc1nc(N)c2nc(-c3ccccc3)c(N)nc2n1 [Triamterene] | inactive: 78.5 | inactive: 88.5
CC(C)C(=O)c1c(C(C)C)nn2ccccc12 [Ibudilast] | inactive: 84.4 | inactive: 82.1
OC(CCN1CCCC1)(c1ccccc1)C1CCCCC1 (stereo unspecified) [Procyclidine hydrochloride] | inactive: 97.1 | inactive: 93.7
CC(C)NCC(O)COc1cccc2[nH]ccc12 (stereo unspecified) [Pindolol] | inactive: 87.7 | inactive: 88.8
CC(CN(C)C)CN1c2ccccc2CCc2ccccc21 (stereo unspecified) [Trimipramine maleate salt] | inactive: 83.5 | inactive: 87.1
CC1(C)O[C@@H]2C[C@H]3[C@@H]4C[C@H](F)C5=CC(=O)C=C[C@]5(C)[C@H]4[C@@H](O)C[C@]3(C)[C@]2(C(=O)CO)O1 [Flunisolide] | inactive: 87.5 | inactive: 88.9
